Results as given in the supplement of paper PMC10369915.
This is one part of the list. Cut-off read from the data, not from the text of the source: active = 3.2 or more and inactive = the rest. The signal is at background level for most entries.

Tests used:
Assay in all cases: enrichment score (SH2-bound / input frequency) (ratio); bacterial display of known human phosphotyrosine sites (pTyr-Var adds point mutants) read by sequencing; higher = stronger binding; tyrosines were phosphorylated by kinases first
Details in all cases: peptide library: pTyr-Var
SHP2 C-SH2 domain E139D = biological target: SHP2 C-SH2 domain E139D
[1] = biological target: SHP2 C-SH2 domain wild-type
SHP2 N-SH2 domain L43F = biological target: SHP2 N-SH2 domain L43F
SHP2 N-SH2 domain T42A = biological target: SHP2 N-SH2 domain T42A
SHP2 N-SH2 domain T52S = biological target: SHP2 N-SH2 domain T52S
[2] = biological target: SHP2 N-SH2 domain wild-type

Measured: enrichment score
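Note: displayed peptides selected on beads carrying the immobilized SH2 domain, with library peptides lacking any tyrosine serving as negative controls.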

B1: JUP_Y693 (peptide)
chain: PINEPYGDDMD
inactive: SHP2 C-SH2 domain E139D 0.404 | [1] 0.377 | SHP2 N-SH2 domain L43F 0.335 | SHP2 N-SH2 domain T42A 0.333 | SHP2 N-SH2 domain T52S 0.413 | [2] 0.391

B2: ITGB7_Y753 (peptide)
chain: LSVEIYDRREY
inactive: SHP2 C-SH2 domain E139D 0.845 | [1] 0.787 | SHP2 N-SH2 domain L43F 0.658 | SHP2 N-SH2 domain T42A 0.621 | SHP2 N-SH2 domain T52S 0.838 | [2] 1.11

B3: ITGAE_Y549_YF (peptide)
chain: EEGRVYVFRLS
inactive: SHP2 C-SH2 domain E139D 0.909 | [1] 0.791 | SHP2 N-SH2 domain L43F 0.694 | SHP2 N-SH2 domain T42A 0.726 | SHP2 N-SH2 domain T52S 0.807 | [2] 0.796

B4: ITGB3_Y773_S778P (peptide)
chain: ANNPLYKEATP
inactive: SHP2 C-SH2 domain E139D 0.757 | [1] 0.715 | SHP2 N-SH2 domain L43F 0.492 | SHP2 N-SH2 domain T42A 0.64 | SHP2 N-SH2 domain T52S 0.597 | [2] 0.891

B5: JAK2_Y613_V617I (peptide)
chain: HLVLNYGVCIC
inactive: SHP2 C-SH2 domain E139D 1.78 | [1] 2.47 | SHP2 N-SH2 domain L43F 0.995 | SHP2 N-SH2 domain T42A 1.46 | SHP2 N-SH2 domain T52S 1.09 | [2] 2.22

B6: ITGA2B_Y845_L847P (peptide)
chain: PSDLLYIPDIQ
inactive: SHP2 C-SH2 domain E139D 1.33 | [1] 1.03 | SHP2 N-SH2 domain L43F 1.15 | SHP2 N-SH2 domain T42A 0.85 | SHP2 N-SH2 domain T52S 0.83 | [2] 0.815

B7: KANSL1_Y223_N225D (peptide)
chain: EHTTLYSDNST
inactive: SHP2 C-SH2 domain E139D 0.44 | [1] 0.651 | SHP2 N-SH2 domain L43F 0.309 | SHP2 N-SH2 domain T42A 0.33 | SHP2 N-SH2 domain T52S 0.444 | [2] 0.497

B8: ITGB3BP_Y32_I30V (peptide)
chain: KSVVTYSPTTG
inactive: SHP2 C-SH2 domain E139D 0.671 | [1] 0.651 | SHP2 N-SH2 domain L43F 0.564 | SHP2 N-SH2 domain T42A 0.644 | SHP2 N-SH2 domain T52S 0.544 | [2] 0.719

B9: ITGB3_Y773 (peptide)
chain: ANNPLYKEATS
inactive: SHP2 C-SH2 domain E139D 0.801 | [1] 0.754 | SHP2 N-SH2 domain L43F 0.62 | SHP2 N-SH2 domain T42A 0.754 | SHP2 N-SH2 domain T52S 0.636 | [2] 0.684

B10: JAK2_Y934 (peptide)
chain: MEYLPYGSLRD
inactive: SHP2 C-SH2 domain E139D 0.78 | [1] 1.27 | SHP2 N-SH2 domain L43F 0.814 | SHP2 N-SH2 domain T42A 0.787 | SHP2 N-SH2 domain T52S 0.892 | [2] 1.13

B11: ITGB7_Y758 (peptide)
chain: YDRREYSRFEK
inactive: SHP2 C-SH2 domain E139D 0.629 | [1] 0.511 | SHP2 N-SH2 domain L43F 0.594 | SHP2 N-SH2 domain T42A 0.557 | SHP2 N-SH2 domain T52S 0.607 | [2] 0.589

B12: JAK2_Y382_A377E (peptide)
chain: EDAHHYLCKEV
inactive: SHP2 C-SH2 domain E139D 1.54 | [1] 1.35 | SHP2 N-SH2 domain L43F 0.962 | SHP2 N-SH2 domain T42A 0.927 | SHP2 N-SH2 domain T52S 1.25 | [2] 1.2

B13: JAK2_Y934_YF (peptide)
chain: MEFLPYGSLRD
inactive: SHP2 C-SH2 domain E139D 0.893 | [1] 0.916 | SHP2 N-SH2 domain L43F 1.24 | SHP2 N-SH2 domain T42A 0.87 | SHP2 N-SH2 domain T52S 1.26 | [2] 1.2

B14: ITGA2B_Y360_E355K (peptide)
chain: KVGRVYLFLQP
inactive: SHP2 C-SH2 domain E139D 1.2 | [1] 1.66 | SHP2 N-SH2 domain L43F 1.37 | SHP2 N-SH2 domain T42A 1.04 | SHP2 N-SH2 domain T52S 1.27 | [2] 1.54

B15: ITK_Y336_R335W (peptide)
chain: VTRLWYPVCFG
inactive: SHP2 C-SH2 domain E139D 1.23 | [1] 1.54 | SHP2 N-SH2 domain L43F 1.42 | SHP2 N-SH2 domain T42A 1.17 | SHP2 N-SH2 domain T52S 1.35 | [2] 1.69

B16: JUP_Y22 (peptide)
chain: QQTYTYDSGIH
inactive: SHP2 C-SH2 domain E139D 0.596 | [1] 0.677 | SHP2 N-SH2 domain L43F 0.575 | SHP2 N-SH2 domain T42A 0.615 | SHP2 N-SH2 domain T52S 0.724 | [2] 0.905

B17: ITSN1_Y1132_S1137N (peptide)
chain: WFPANYVKLLN
inactive: SHP2 C-SH2 domain E139D 1.25 | [1] 2.89 | SHP2 N-SH2 domain L43F 1.72 | SHP2 N-SH2 domain T42A 2.98 | SHP2 N-SH2 domain T52S 1.43 | [2] 1.42

B18: JMJD1C_Y596_M591V (peptide)
chain: VEKEKYVSYIS
inactive: SHP2 C-SH2 domain E139D 0.761 | [1] 0.845 | SHP2 N-SH2 domain L43F 0.727 | SHP2 N-SH2 domain T42A 0.664 | SHP2 N-SH2 domain T52S 0.773 | [2] 0.864

B19: JAK2_Y373_A377E (peptide)
chain: LIDGYYRLTED
inactive: SHP2 C-SH2 domain E139D 0.994 | [1] 2.77 | SHP2 N-SH2 domain L43F 0.841 | SHP2 N-SH2 domain T42A 1.03 | SHP2 N-SH2 domain T52S 1.18 | [2] 0.939

B20: ITGB3_Y773_A776V (peptide)
chain: ANNPLYKEVTS
inactive: SHP2 C-SH2 domain E139D 0.562 | [1] 0.618 | SHP2 N-SH2 domain L43F 0.767 | SHP2 N-SH2 domain T42A 0.55 | SHP2 N-SH2 domain T52S 0.8 | [2] 0.791

B21: JAK2_Y613 (peptide)
chain: HLVLNYGVCVC
inactive: SHP2 C-SH2 domain E139D 1.59 | [1] 1.86 | SHP2 N-SH2 domain L43F 1.26 | SHP2 N-SH2 domain T42A 1.86 | SHP2 N-SH2 domain T52S 1.12 | [2] 1.61

B22: JAK2_Y931_Y931C_YF (peptide)
chain: KLIMECLPFGS
inactive: SHP2 C-SH2 domain E139D 1.02 | [1] 1.15 | SHP2 N-SH2 domain L43F 1.11 | SHP2 N-SH2 domain T42A 0.708 | SHP2 N-SH2 domain T52S 1.07 | [2] 1.39

B23: KANSL1_Y223 (peptide)
chain: EHTTLYSNNST
inactive: SHP2 C-SH2 domain E139D 0.827 | [1] 0.758 | SHP2 N-SH2 domain L43F 0.526 | SHP2 N-SH2 domain T42A 0.682 | SHP2 N-SH2 domain T52S 0.556 | [2] 0.881

B24: ITGB2_Y125_D128Y (peptide)
chain: RRAKGYPIYLY
inactive: SHP2 C-SH2 domain E139D 0.377 | [1] 0.267 | SHP2 N-SH2 domain L43F 0.245 | SHP2 N-SH2 domain T42A 0.312 | SHP2 N-SH2 domain T52S 0.174 | [2] 0.364

B25: ITGB7_Y758_Y753H (peptide)
chain: HDRREYSRFEK
inactive: SHP2 C-SH2 domain E139D 0.704 | [1] 0.626 | SHP2 N-SH2 domain L43F 0.669 | SHP2 N-SH2 domain T42A 0.699 | SHP2 N-SH2 domain T52S 0.537 | [2] 1.06

B26: JUP_Y20_T19I (peptide)
chain: EWQQIYTYDSG
inactive: SHP2 C-SH2 domain E139D 1.23 | [1] 1.25 | SHP2 N-SH2 domain L43F 1.54 | SHP2 N-SH2 domain T42A 0.816 | SHP2 N-SH2 domain T52S 1.17 | [2] 1.11

B27: JAK2_Y373_A377E_YF (peptide)
chain: LIDGFYRLTED
inactive: SHP2 C-SH2 domain E139D 0.865 | [1] 0.695 | SHP2 N-SH2 domain L43F 1.02 | SHP2 N-SH2 domain T42A 0.852 | SHP2 N-SH2 domain T52S 1.1 | [2] 1.03

B28: JAK2_Y931 (peptide)
chain: KLIMEYLPYGS
inactive: SHP2 C-SH2 domain E139D 1.22 | [1] 1.11 | SHP2 N-SH2 domain L43F 1.21 | SHP2 N-SH2 domain T42A 1.31 | SHP2 N-SH2 domain T52S 1.25 | [2] 1.18

B29: JUP_Y701_M697L_YF (peptide)
chain: DLDATYRPMFS
inactive: SHP2 C-SH2 domain E139D 0.668 | [1] 0.565 | SHP2 N-SH2 domain L43F 0.74 | SHP2 N-SH2 domain T42A 0.565 | SHP2 N-SH2 domain T52S 0.744 | [2] 0.75

B30: JUP_Y22_T19I_YF (peptide)
chain: QQIFTYDSGIH
inactive: SHP2 C-SH2 domain E139D 0.976 | [1] 1.16 | SHP2 N-SH2 domain L43F 0.848 | SHP2 N-SH2 domain T42A 1.01 | SHP2 N-SH2 domain T52S 0.996 | [2] 0.717

B31: JAK2_Y934_Y931C (peptide)
chain: MECLPYGSLRD
inactive: SHP2 C-SH2 domain E139D 0.814 | [1] 1.06 | SHP2 N-SH2 domain L43F 0.948 | SHP2 N-SH2 domain T42A 0.783 | SHP2 N-SH2 domain T52S 0.682 | [2] 1.03

B32: KANK1_Y324_K321R (peptide)
chain: VRRRSYSAGNA
inactive: SHP2 C-SH2 domain E139D 0.226 | [1] 0.283 | SHP2 N-SH2 domain L43F 0.207 | SHP2 N-SH2 domain T42A 0.192 | SHP2 N-SH2 domain T52S 0.238 | [2] 0.215

B33: ITGA7_Y458 (peptide)
chain: GKVFIYHGSSL
inactive: SHP2 C-SH2 domain E139D 1.19 | [1] 0.986 | SHP2 N-SH2 domain L43F 1.6 | SHP2 N-SH2 domain T42A 1.17 | SHP2 N-SH2 domain T52S 1.67 | [2] 1.12

B34: ITGA3_Y237_S235P_YF (peptide)
chain: WDLPEYSFKDP
inactive: SHP2 C-SH2 domain E139D 1.61 | [1] 1.93 | SHP2 N-SH2 domain L43F 2.45 | SHP2 N-SH2 domain T42A 1.39 | SHP2 N-SH2 domain T52S 1.81 | [2] 1.84

B35: JAGN1_Y42 (peptide)
chain: IKKLIYVHLVI
inactive: SHP2 C-SH2 domain E139D 0.811 | [1] 0.794 | SHP2 N-SH2 domain L43F 0.863 | SHP2 N-SH2 domain T42A 0.743 | SHP2 N-SH2 domain T52S 0.76 | [2] 0.965

B36: JAK2_Y372 (peptide)
chain: SLIDGYYRLTA
inactive: SHP2 C-SH2 domain E139D 1.24 | [1] 2.67 | SHP2 N-SH2 domain L43F 1.34 | SHP2 N-SH2 domain T42A 1.09 | SHP2 N-SH2 domain T52S 1.22 | [2] 1.12

B37: JAGN1_Y42_H44Y_YF (peptide)
chain: IKKLIYVFLVI
inactive: SHP2 C-SH2 domain E139D 1.99 | [1] 1.77 | SHP2 N-SH2 domain L43F 1.64 | SHP2 N-SH2 domain T42A 1.5 | SHP2 N-SH2 domain T52S 2 | [2] 1.78
